According to PubChem BioAssay AID743279 (National Center for Advancing Translational Sciences (NCATS), 2014):
Hit rate of the full screen: of about 360,000 compounds, about 17,000 (4.7%) were called active. This list was built around the results that the source calls inconclusive (neither active nor inactive); the mix of calls is not that of the screen. Cut-off read from the data, not from the text of the source: active = activity change below about -50%; inconclusive = mostly about -30% to -49%; inactive = weaker than that.

experiment: qHTS for Inhibitors of Inflammasome Signaling: IL-1-beta AlphaLISA Primary Screen; conditions: THP-1 LPS/ATP IL-1B secretion, 16 h; at 57.5 µM, stronger effect = lower value
Summary of the method: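 Secreted IL-1B measured by AlphaLISA bead assay after 16 h compound exposure of THP-1 cells; compounds (final up to 57.5 uM) added 1 h before LPS (250 ng/mL) and ATP (1.25 mM) stimulation; lower signal means less secretion.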
% is set by controls: 0 for no effect and ±100 for the full control effect.

Structure (SMILES)	activity change
Cc1cc(OCC(=O)Nc2ccccc2N2CCCC2)ccc1C(C)C	inconclusive: -41.5%
CCOc1ccc(C(=O)NC(C(=O)NCc2ccccc2OC)C(C)C)cc1 (stereo unspecified)	inactive: 6.5%
COc1cccc(-c2nc(CCl)cs2)c1	inconclusive: -32.3%
CCCOc1ccc(C(=O)CCC(=O)NNC(=O)c2cccs2)cc1	inactive: 31.7%
CN(CC(=O)Nc1ccc(Cl)c(C(F)(F)F)c1)C(=O)CC1Sc2ccccc2NC1=O (stereo unspecified)	inconclusive: -34%
Cc1ccc(C)c(CN2CCC(n3nccc3NC(=O)CCCc3ccccc3)CC2)c1	inconclusive: -43.9%
O=C(NCC(=O)N1CCN(c2ccccc2O)CC1)C1CCCCC1	inactive: 5.31%
COc1ccc(Cl)cc1C(=O)Nc1ccccc1N1CCN(C(=O)C(C)C)CC1	inconclusive: -43.5%
C=CCC[C@H](Cc1ccc(F)cc1)C(=O)OC[C@H](Cc1c[nH]c2ccccc12)NC(=O)[C@@H](CC=C)CC(=O)N[C@H](CO)Cc1ccccc1	inconclusive: -47.2%
Cc1ccc(CCN2C(=O)c3ccccc3C2C(=O)NCc2cccnc2)cc1 (stereo unspecified)	inactive: -7.65%
CC(C)CNC(=O)[C@H](Cc1ccccc1)NC(=O)c1cccs1	inactive: -4.67%
O=Cc1c[nH]c2ccc(C(=O)c3ccccc3)cc12	inconclusive: -31.4%
O=C(C[n+]1cc(-c2ccc(Cl)cc2)n2c1CCC2)N1c2ccccc2Sc2ccccc21	active: -57.1%
CCCNC(=O)CN1C(=O)NC(CC)(c2ccc(F)cc2)C1=O (stereo unspecified)	inactive: 19.9%
CCOC(=O)/C=C1/SCC(=O)N1CC(=O)NC12CC3CC(CC(C3)C1)C2	inactive: 18.1%
O=C(c1cc(-c2ccc(Cl)cc2)n(-c2ccc(Cl)c(Cl)c2)n1)N1CCOCC1	inconclusive: -37.6%
Cc1cc(C(F)(F)F)c2c(N)c(C(=O)Nc3cc(C)on3)sc2n1	inconclusive: -44.3%
COc1ccc(Cl)c2sc(N3CCN(C(=O)C4=COCCO4)CC3)nc12	inconclusive: -31.1%
O=Cc1cc([N+](=O)[O-])ccc1N1CCN(Cc2ccc3c(c2)OCO3)CC1	active: -63.8%

Structure (SMILES)	activity change
Cc1ccc(S(=O)(=O)NC2CCCC2)cc1C(N)=O	inactive: 16.8%
CC(=O)N1CCCc2cc(S(=O)(=O)N(C)Cc3ccccc3)ccc21	inactive: -18.5%
c1ccc(CSc2nnc(Cc3ccccn3)o2)cc1	inconclusive: -35.4%
CC1=C/C(=N\NC(=O)c2ccc(O)cc2)CC1	inactive: -0.309%
CNCCNC[C@H](Cc1cccc2ccccc12)NCCc1ccccc1	inconclusive: -44%
O=C(Nc1ccc(Cl)cn1)C1CCN(c2ncnc3c2nc2n3CCCCC2)CC1	active: -90.8%
O=C(NCc1ccccc1C(F)(F)F)c1cccc2c1C(=O)c1ccc(N3CCC(N4CCCCC4)CC3)cc1S2(=O)=O	active: -103%
Cc1ccc(OCC(=O)Nc2ccccc2C(=O)NC2CC2)cc1C	inactive: 0%
Cc1ccc(OCCC(=O)Nc2ccc3c(c2)OCO3)cc1	inconclusive: -35.1%
CC(C)OC(=O)c1ccc(NC(=O)c2ccccc2)cc1	inconclusive: -43%
C=CCn1c2c(c3ccccc31)CCC2	inactive: 0%
COc1ccc(C(=O)N(c2ccccc2)c2nccc3ccccc23)cc1OC	inactive: 0%
CCCc1[nH]nc2c1C(c1ccccc1OCC)C(C#N)=C(N)O2 (stereo unspecified)	inconclusive: -36.5%
Cc1ccc(N2CC(c3nc4ccccc4n3C)CC2=O)cc1C (stereo unspecified)	inactive: -1.7%
O=C(Cn1cc([N+](=O)[O-])nc1[N+](=O)[O-])N1CCN(c2ccccc2)CC1	inconclusive: -33.4%
O=C(c1[nH]ncc1-c1ccccc1)C1CO1 (stereo unspecified)	active: -72.8%
O=C(c1cccc(NC2=NC3CS(=O)(=O)CC3S2)c1)N1CCN(c2cccc(Cl)c2)CC1 (stereo unspecified)	inactive: -15%
Nc1nc(CN2CCC(Cc3ccccc3)CC2)nc(Nc2ccccc2)n1	inconclusive: -41%
O=C(NC(NC(=S)Nc1ccccc1)C(Cl)(Cl)Cl)c1cccc(Cl)c1 (stereo unspecified)	active: -94.5%

Structure (SMILES)	activity change
O=C(CCC(=O)N1CCN(c2ccc(F)cc2)CC1)c1ccc(F)cc1	inconclusive: -40%
COc1ccc(C2c3c(-c4ccccc4O)n[nH]c3C(=O)N2CCc2ccc(OC)c(OC)c2)cc1 (stereo unspecified)	active: -51.4%
O=C(Nc1nnc(C2CC2)o1)c1ccc(S(=O)(=O)N2CCCc3ccccc32)cc1	inactive: 27.6%
Cc1ccc(-n2c(SCC(=O)N/N=C/C=C/c3ccccc3[N+](=O)[O-])nc3ccccc3c2=O)cc1	inconclusive: -47%
Cc1cccc(-n2c(SCC(=O)Nc3ncc(Cl)cc3Cl)nc3ccccc32)c1	inconclusive: -48.5%
COc1ccc(C(=O)CSc2nnc(-c3cccnc3)n2Cc2ccco2)cc1	inconclusive: -34.2%
Cc1c(C(=O)NCc2ccc(Cl)c(Cl)c2)sc(=O)n1Cc1ccc(C(=O)N(C)C)cc1	inconclusive: -31.4%
O=[N+]([O-])c1ccccc1NCCNc1ncc(C(F)(F)F)cc1Cl	inactive: -6.33%
CSc1ccc(C(=O)C2CCCN(C(=O)c3cc4cc(F)ccc4[nH]3)C2)cc1 (stereo unspecified)	active: -62.8%
CC(C)CC1C(=O)N(Cc2cn(CC3CCCCC3)nn2)CCS(=O)(=O)N1Cc1ccc(-c2ccc(F)nc2)cc1 (stereo unspecified)	inactive: -3%
O=C1CCC(=O)N1c1cccc(-c2nc3ccccc3o2)c1	inconclusive: -30%
Cc1cccnc1NS(=O)(=O)c1cccc([N+](=O)[O-])c1	inactive: 19%
CC(C)c1onc(C(=O)Nc2cccc(Cl)c2)c1[N+](=O)[O-]	inconclusive: -38%
CC1CCCCC1N=CC1=C(O)CC(C)(C)CC1=O (stereo unspecified)	inactive: 15.5%
N#Cc1c(N)nc(SCc2ccncc2)c(C#N)c1-c1cccs1	active: -50.9%
Cc1cc(C(=O)N2CCN(C/C=C/c3ccccc3)CC2)cs1	inactive: 1.38%
O=C(NC(=S)NNS(=O)(=O)c1ccc(Cl)cc1)c1cccnc1	inactive: 33%
CN(C)S(=O)(=O)c1ccc(Cl)c(NC(=O)COC(=O)CNC(=O)c2ccco2)c1	inconclusive: -36.8%
